Test results published in PubChem BioAssay AID588855 (National Center for Advancing Translational Sciences (NCATS), 2011).
The campaign covered roughly 410,000 compounds. About 5,000 (1.2%) were called active. Inconclusive results, whose numbers are uncertain, are shown with a selection of clear calls. Calls follow the shape of the dose curve; as a rule, active = well fitted inhibition curve with a large enough effect; inconclusive = small, poorly fitted or top-dose-only effect; inactive = no such curve, though single readings can be large or run the other way. Potencies of inconclusive entries are doubtful fits and often do not repeat.

Assay: qHTS for Inhibitors of TGF-b; also: nearly all actives have a fitted effect of over 65% in size
Settings: HepG2 CAGA-GFP TGF-b/SMAD3 reporter, GFP fluorescence, 18 h, TGF-beta stimulated, 500 pg/mL final; series mostly up to 46.1 µM; activity, negative = inhibition: at the top concentration
Outline: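 First, reporter cells (HEPG2 CAGA-GFP) rested 2 h at 37 degrees C. Next, compounds were pinned in and TGF-beta added to 500 pg/mL final. After 18 h, GFP was imaged per cell and summed per well.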
% is scaled to controls: 0 for no effect and ±100 for the full control effect; potency is read from the fitted curve at half-maximal effect; tags tell the direction and shape of the fitted curve.

Row | Compound | Potency | activity, negative = inhibition
1 | CCOC(=O)c1cc2c(=O)n3ccccc3nc2n(Cc2ccco2)c1=NC(=O)c1c(F)cccc1Cl | inconclusive: 3.55 µM [inhibitor, single point] | –
2 | Cn1c(/C=C/c2cccc([N+](=O)[O-])c2)c([N+](=O)[O-])c(=O)n(C)c1=O | – | inactive: -36.7%
3 | CC(C)C(=O)Nc1cccc(NC(=S)NC(=O)C(c2ccccc2)c2ccccc2)c1 | inconclusive: 22.4 µM [inhibitor, single point] | –
4 | CCc1ccc(Nc2n[n+](-c3ccccc3)c(-c3ccc(SC)cc3)s2)cc1 | inconclusive: 14.1 µM [inhibitor, single point] | –
5 | O=C(Nc1ccc2nc(SCC(=O)N3CCCC3)sc2c1)c1cccc(Cl)c1 | inconclusive: 0.562 µM [inhibitor, full curve, poor fit] | –
6 | Cc1ccc2ccccc2c1C(O)c1ncc(-c2cccc(C(F)(F)F)c2)[nH]1 (stereo not drawn) | inconclusive: 35.5 µM [inhibitor, single point] | –
7 | Cc1cc(N2CCOCC2)n2ncc(-c3ccc(Cl)cc3)c2n1 | – | inactive: 4.37%
8 | CC(C)(C)NC(=O)C(c1ccccn1)N(C(=O)C1CSC(=O)C1)c1ccc(F)cc1 (stereo not drawn) | inconclusive: 11.2 µM [inhibitor, single point] | –
9 | C=C1C(=O)O[C@H]2[C@H]1[C@H](OC(=O)/C(C)=C\C)C[C@]1(CO1)[C@@H]1[C@H](OC(C)=O)C=C(C)[C@]21O | inconclusive: 17.8 µM [inhibitor, single point] | –
10 | CC1=Nc2cc(C(=O)NCCc3ccccc3)ccc2Sc2c(C)ccc(C)c21 | active: 6.31 µM | –
11 | CCCCC(=O)NC(=S)Nc1ccccc1N1CCCCC1 | inconclusive: 11.2 µM [inhibitor, partial curve] | –
12 | Cc1ccc(S(=O)(=O)N2CCN(C(=S)NCC3CCCO3)CC2)cc1 (stereo not drawn) | – | inactive: -0.859%
13 | COC(=O)c1ccc2nc(C3CCCCC3)c(CC(C)(C)C)n2c1 | inconclusive: 22.4 µM [inhibitor, partial curve, poor fit] | –
14 | O=C(Nc1ccccc1)C1=C[C@H](C2CCCCC2)C[C@H](OCc2ccc(CO)cc2)O1 | inconclusive: 14.1 µM [inhibitor, single point] | –
15 | CCNC(=O)COc1ccc(/C=C2\COc3ccccc3C2=O)cc1OC | inconclusive: 22.4 µM [inhibitor, single point] | –
16 | c1csc(CNc2ncnc3ccc(-c4ccc5c(c4)OCCO5)cc23)c1 | inconclusive: 35.5 µM [inhibitor, single point] | –
17 | CSC(=O)CC(=O)NC(=O)c1ccccc1 | inconclusive: 35.5 µM [inhibitor, single point] | –
18 | O=C(c1cccc(S(=O)(=O)N2CCN(c3ccc(F)cc3)CC2)c1)N1CCCC(C(F)(F)F)C1 (stereo not drawn) | inconclusive: 5.01 µM [inhibitor, partial curve, poor fit] | –
19 | Cc1ccccc1CN1CCCOCCS1(=O)=O | inactive | –
20 | Cc1ccc(S(=O)(=O)N(C)C)cc1NC(=O)COC(=O)c1ccc(Cl)cc1 | – | inactive: 7.03%
21 | O=c1[nH]n(Cc2ccccc2)c2ccccc12 | – | inactive: -12.5%
22 | O=C(CSc1nnc(SCc2ccc(Cl)cc2)s1)c1ccc2c(c1)OCO2 | inconclusive: 10 µM [inhibitor, partial curve, poor fit] | –

Row | Compound | Potency | activity, negative = inhibition
23 | CCCCNCCCOc1cccc(Cl)c1Cl | inconclusive: 35.5 µM [inhibitor, single point] | –
24 | CN(C)/C=N/c1ncc(C(=O)c2ccccc2)s1 | – | inactive: 0%
25 | O=c1oc2ccccc2c(Nc2ccc3ccccc3c2)c1[N+](=O)[O-] | – | inactive: 0%
26 | CC(=O)Nc1ccc(NC(=O)c2c([N+](=O)[O-])c(C(C)(C)C)nn2C)cc1 | – | inactive: -19.1%
27 | Cc1ccc(Nc2nc(-c3ccccc3)cs2)nc1 | – | inactive: -3.48%
28 | COCCCNC(=O)CSc1nc2ccc(N3CCOCC3)cc2c(=O)n1CCc1ccccc1 | inconclusive: 2.82 µM [inhibitor, partial curve] | –
29 | CC(=O)N1c2ccc(S(=O)(=O)NCC3CCC(C(=O)Nc4cccc(C)c4C)CC3)cc2CC1C (stereo not drawn) | inconclusive: 0.112 µM [inhibitor, full curve, poor fit] | –
30 | COc1cc2ccc(C(C)=NNC(N)=S)cc2cc1OC | inconclusive: 25.1 µM [inhibitor, single point] | –
31 | O=C(NCC(c1cccnc1)N1CCN(c2ccccc2)CC1)c1ccco1 (stereo not drawn) | – | inactive: -25.3%
32 | CS(=O)(=O)c1ncc(Cl)c(C(=O)Nc2ccc(OC(F)F)cc2)n1 | inconclusive: 25.1 µM [inhibitor, single point] | –
33 | CCc1ccc(N=C2NC(=O)/C(=C/c3cc(OC)c(O)c(OC)c3)S2)cc1 | inconclusive: 10 µM [inhibitor, partial curve, poor fit] | –
34 | O=C(NC1CCN(Cc2ccc(F)cc2)CC1)c1ccccc1 | inconclusive: 12.6 µM [inhibitor, single point] | –
35 | Cn1c(=O)[nH]c(=O)c2c1nc(N1CCC(Cc3ccccc3)CC1)n2Cc1ccccc1 | inconclusive: 22.4 µM [inhibitor, partial curve, poor fit] | –
36 | O=C(NC(=S)Nc1ccccc1N1CCCCC1)c1ccccc1 | inconclusive: 22.4 µM [inhibitor, single point] | –
37 | COc1ccccc1N1CCN(S(=O)(=O)CCNC(=O)COc2ccc(C(C)C)cc2)CC1 | inconclusive: 25.1 µM [inhibitor, single point] | –
38 | O=C(c1ccc(COc2ccccc2Br)o1)N1N=C(C(F)F)CC1(O)C(F)F (stereo not drawn) | inconclusive: 20 µM [inhibitor, single point] | –
39 | Clc1ccc(Nc2nc(Nc3ccc(Cl)cc3)nc(N3CCOCC3)n2)cc1 | – | inactive: 11%
40 | COc1ccccc1NS(=O)(=O)c1cc(NC(=O)c2cccnc2)ccc1N1CCCCC1 | inconclusive: 11.2 µM [inhibitor, single point] | –
41 | COc1ccc(-c2nsc(NC(=O)C(C)Oc3ccc(Cl)c(C)c3)n2)cc1 (stereo not drawn) | inconclusive: 10 µM [inhibitor, partial curve, poor fit] | –
42 | COc1ccccc1OCC(=O)Nc1cccc(S(=O)(=O)NC2=NCCCCC2)c1 | – | inactive: -6.27%
43 | COc1cccc(NC(=O)N2CCc3nc(Nc4cc(Cl)cc(Cl)c4)ncc3C2)c1 | inconclusive: 15.8 µM [inhibitor, single point] | –
